According to PubChem BioAssay AID2676 (National Center for Advancing Translational Sciences (NCATS), 2010):
The whole screen tested about 370,000 compounds, of which about 1,100 (0.3%) were called active. The shares of active, inactive and inconclusive entries below differ from those in the screen. The call rests on the fitted dose curve; in most records, active means well fitted activation curve with a large enough effect; inconclusive means small, poorly fitted or top-dose-only effect; inactive means flat fitted curve, though single readings scatter. A potency beside an inconclusive call is a rough fit, not a confirmed value.

Target: Relaxin receptor 1 (Homo sapiens) (UniProt Q9HBX9)
Chain of UniProt Q9HBX9 (Q9HBX9 whole entry, looked up): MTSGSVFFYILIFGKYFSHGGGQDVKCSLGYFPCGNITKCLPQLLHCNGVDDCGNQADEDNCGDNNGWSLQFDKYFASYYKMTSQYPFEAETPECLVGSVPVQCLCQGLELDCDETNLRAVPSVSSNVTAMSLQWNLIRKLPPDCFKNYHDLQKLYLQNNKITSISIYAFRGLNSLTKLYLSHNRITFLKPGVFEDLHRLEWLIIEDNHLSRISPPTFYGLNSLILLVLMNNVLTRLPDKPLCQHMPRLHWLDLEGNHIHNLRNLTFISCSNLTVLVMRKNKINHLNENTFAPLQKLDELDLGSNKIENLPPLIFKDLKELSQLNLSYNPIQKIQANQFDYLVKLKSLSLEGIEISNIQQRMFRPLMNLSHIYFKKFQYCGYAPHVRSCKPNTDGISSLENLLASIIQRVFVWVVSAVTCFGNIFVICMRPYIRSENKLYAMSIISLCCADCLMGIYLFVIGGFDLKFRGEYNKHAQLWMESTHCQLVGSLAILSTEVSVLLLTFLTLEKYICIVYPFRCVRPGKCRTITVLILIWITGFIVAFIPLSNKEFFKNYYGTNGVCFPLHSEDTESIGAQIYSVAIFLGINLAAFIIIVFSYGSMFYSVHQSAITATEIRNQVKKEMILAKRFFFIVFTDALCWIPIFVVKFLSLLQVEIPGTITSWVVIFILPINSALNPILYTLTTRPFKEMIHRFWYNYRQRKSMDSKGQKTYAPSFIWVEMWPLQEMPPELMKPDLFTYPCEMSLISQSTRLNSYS
Assay: qHTS Assay for Agonists of the Relaxin Receptor RXFP1; further: nearly all actives have a fitted effect of over 60% in size
Conditions: HEK293T-RXFP1 cAMP TR-FRET, 30 min; series mostly up to 57.5 µM
Excerpt: NIH Chemical Genomics Center [NCGC] NIH Molecular Libraries Probe Production Centers Network [MLPCN] MLPCN Grant: R03 MH085705-01A1 Assay Submitter (PI): Alexander Agoulnik NCGC Assay Overview: The relaxin hormone is involved in the variety of biological functions in normal tissues and diseases. The role of relaxin is well-established in female reproduction and parturition, mammary gland and endometrial development, maintenance of myometrial quiescence during pregnancy. Relaxin signaling through its G protein-coupled receptor (GPCR) RXFP1 results in ECM remodeling through regulation of collagen deposition, cell invasiveness, proliferation and overall tissue homeostasis. […] Recombinant human relaxin (rhRlx) is currently being tested in clinical trials as a protective agent in congestive heart failure, in treating severe preeclampsia, and as an anti-fibrotic agent in systemic sclerosis. Upon relaxin binding RXFP1 activation leads to the activation of adenylate cyclase (AC) via Gs. cAMP will activate PKA, which phosphorylates many signaling proteins. Thus, detection of cAMP increase is an easy and reliable indication of relaxin receptor activation. To screen for agonists of the relaxin receptor, a HEK293T cell line stably transfected with RXFP1 was used. RXFP1 activation was assayed by changes in cAMP levels as detected with a time-resolved fluorescence energy transfer (TR-FRET) cAMP detection kit.
NCGC Assay Protocol Summary: This is a cell-based assay for cAMP second messenger response to screen for agonists of the RXFP1 receptor. The assay was conducted in the presence of a PDE4 inhibitor (Ro 20174). The cells were lysed and the cAMP levels were measured with a TR-FRET cAMP kit. Presence of cAMP in the cell lysate disrupts binding between the cryptate-labeled anti-cAMP and d2-labeled cAMP pair, leading to a decrease in the TR-FRET signal. Data were normalized to the controls for basal activity (buffer only) and 100% activity (29 nM porcine relaxin). The EC50 values were determined from concentration-response data modeled with the standard Hill equation 1536-well assay protocol for the HEK293 RXFP1 cAMP assay: (1) Add 3 ul HEK293 RXFP1 cell culture. 2000 cells/well in DMEM/F12, 10% FBS, 1x Pen/Strep (dispensed offline with MultiDrop Combi). (2) Incubate 16-24 hr at 37C, 5% CO2. (3) Add 1 ul 400uM Ro20174 in DPBS, 0.05% BSA, 0.005% Tween 20. (3) Add 23 nl compounds in DMSO solution. Final concentration was 0.5 - 58 uM. (4) Incubate 30 min at 37C, 5% CO2. (5) Add 1 ul cAMP-d2 in lysis buffer (HTRF cAMP HiRange kit, CisBio). (6) Add 1 ul anti-cAMP antibody-cryptate in lysis buffer (HTRF cAMP HiRange kit, CisBio). (7) Incubate 30 min at room temperature. (6) Detect the assay plate in a ViewLux plate reader (PerkinElmer) with Ex=320 nm, Em1=615 nm and Em2=665 nm. Keywords: relaxin, RXFP1, RXFP2, G-protein coupled receptor, cAMP, agonist, high throughput screening, MLSMR, MLSCN, NIH Roadmap, qHTS and NCGC
Potency means the concentration at half of the fitted maximal effect; tags describe the fitted curve by direction and shape.

| SMILES | Potency |
| --- | --- |
| CCOC(=O)CNC(=O)c1ccc(-c2nn(C)c(=O)c3ccccc23)cc1 | inconclusive: 35.5 µM [activator, single point] |
| Cn1c(=O)c2cc3ccccc3nc2n(C)c1=O | inconclusive: 35.5 µM [activator, single point] |
| CCOC(=O)c1sc(-c2ccccc2)cc1NC(=O)c1ccc(S(=O)(=O)N(CCOC)CCOC)cc1 | inconclusive: 39.8 µM [activator, single point] |
| O=C(c1ccco1)N1CCN(c2ccccc2F)CC1 | inactive |
| CNC(=S)N(Cc1cccs1)Cc1cc2cc(OC)c(OC)cc2[nH]c1=O | inactive |
| COc1cc(/C=C/c2nc3cc(Cl)ccc3c(=O)n2-c2cccc(C(F)(F)F)c2)cc(OC)c1OC | inactive |
| CN(C)S(=O)(=O)c1ccc2c(c1)N(CC(=O)N1CCN(c3cccc(Cl)c3)CC1)CCS2 | inconclusive: 35.5 µM [activator, single point] |
| CC(C(=O)O)c1ccc(C(=O)c2cccs2)cc1 (stereo unspecified) | inconclusive: 12.6 µM [activator, partial curve] |
| Cc1cccc(OCc2nnc(N)s2)c1C | inactive |
| C=CCN1C(=O)c2cccc3c(Br)ccc(c23)C1=O | inconclusive: 28.2 µM [activator, partial curve] |
| Cc1cc(C)cc(Nc2nc3ccccc3n3cnnc23)c1 | inconclusive: 31.6 µM [activator, partial curve] |
| CCOc1cc(C2C(C#N)=C(N)SC(N)=C2C#N)ccc1OCCN1CCOCC1 | inconclusive: 28.2 µM [activator, single point] |
| O=C(Nc1nc2ccc(S(=O)(=O)N3CCCC3)cc2s1)c1ccc(F)cc1 | inconclusive: 39.8 µM [activator, single point] |
| CCc1cccc(CC)c1NC(=O)CN(C)S(=O)(=O)c1ccc2c(c1)n(C)c(=O)c(=O)n2C | inconclusive: 31.6 µM [activator, single point] |
| CCCCN(Cc1cc2cc(C)ccc2[nH]c1=O)C(=O)c1cccc(Cl)c1 | inconclusive: 35.5 µM [activator, single point] |
| Cc1nn(CCc2nc(-c3ccco3)cs2)c2[nH]c(=O)cc(C(F)(F)F)c12 | inconclusive: 20 µM [activator, partial curve] |
| FC(F)(F)c1nnc2sc(-c3cccs3)nn12 | inactive |
| CC(=O)NC(=S)Nc1ccc(-c2nc3ccc(C)cc3s2)cc1 | inconclusive: 22.4 µM [activator, partial curve] |
| COC(=O)c1ccc(NC(=O)C(=O)N2CCN(C(=S)Nc3cccc(OC)c3)CC2)cc1 | inactive |
| O=C(Cc1sc(Nc2ccccc2)nc1-c1ccccc1)NCc1ccccc1 | inactive |
| Cc1ccccc1Cn1ccn(-c2ccc(F)c(F)c2)c(=O)c1=O | inconclusive: 28.2 µM [activator, single point] |
| Cn1c(=O)c2c(ncn2CCOc2ccc(Br)cc2)n(C)c1=O | inconclusive: 31.6 µM [activator, partial curve] |

| SMILES | Potency |
| --- | --- |
| CCCn1c(=N)c(C(=O)NCC2CCCO2)cc2c(=O)n3cc(C)ccc3nc21 (stereo unspecified) | inconclusive: 14.1 µM [activator, partial curve] |
| CSc1nnc(-c2ccccc2SC)o1 | inconclusive: 28.2 µM [activator, partial curve] |
| Cc1ccc(NC(=O)Cn2c(=O)n(Cc3nc(-c4ccccc4)no3)c(=O)c3ccccc32)c(C)c1 | inconclusive: 31.6 µM [activator, single point] |
| CCc1ccc(-c2nc(NC(=O)c3ccc(OCC(=O)Nc4ccc(F)cc4)c(OC)c3)sc2C)cc1 | active: 31.6 µM |
| COc1ccc(NC(=O)Cn2c3ccc(OC)cc3c3nc4n(c(=O)c32)CCS4)cc1 | inconclusive: 8.91 µM [activator, full curve] |
| CCc1cc2c(SCC(=O)C(C#N)=C3N(C)c4ccccc4N3C)ncnc2s1 | inconclusive: 35.5 µM [activator, single point] |
| CCOC(=O)c1c(NS(=O)(=O)c2cccc(OC)c2)sc2c1CCC2 | inactive |
| COc1ccc(/C=N/NC(=O)Cn2cnc3c2c(=O)n(C)c(=O)n3C)cc1 | inconclusive: 28.2 µM [activator, partial curve] |
| Cc1ccc(CCNC(=O)CCCc2nnc3n(C)c(=O)c4sccc4n23)cc1 | inconclusive: 14.1 µM [activator, partial curve] |
| Cc1cc(C)c(Cn2c(=O)n(CCCC(=O)NCc3ccc4c(c3)OCO4)c(=O)c3sccc32)c(C)c1 | inconclusive: 39.8 µM [activator, single point] |
| CCOc1ccccc1NC(=O)CSc1ccc2nnc(-c3cccnc3)n2n1 | inconclusive: 22.4 µM [activator, partial curve] |
| CC(C)c1ccc(Nc2c(-c3ccccn3)nc3ccccn23)cc1 | inconclusive: 28.2 µM [activator, single point] |
| CN1CCN(c2ccc(NC(=O)COc3ccccc3[N+](=O)[O-])cc2)CC1 | inactive |
| Cc1ccc(Cl)cc1N1CCN(C(=O)CCn2c(=O)c3cccn3c3cccnc32)CC1 | inconclusive: 35.5 µM [activator, single point] |
| COc1ccc(N(C(=O)c2snc(C(N)=O)c2N)C(C(=O)NCC2CCCO2)c2ccc(C)o2)cc1OC (stereo unspecified) | inactive |
| CCc1ccc2oc(-c3ccc(OC)cc3)cc(=Nc3cccc(C(=O)O)c3)c2c1 | inactive |
| COc1cc(OC)cc(C(=O)Nc2ccc(S(=O)(=O)Nc3ccccn3)cc2)c1 | inconclusive: 31.6 µM [activator, single point] |
| Cc1cc(C)c2c(n1)sc1c(=O)n(Cc3ccc(F)cc3)cnc12 | inconclusive: 39.8 µM [activator, single point] |
| Oc1ccccc1-c1nc(NCc2ccccc2)c2ccccc2n1 | inconclusive: 31.6 µM [activator, single point] |
| Cc1cc(Br)ccc1NC(=O)c1sc2ncn(CC(=O)N3CCN(c4ccccn4)CC3)c(=O)c2c1C | inconclusive: 28.2 µM [activator, partial curve] |
| Cc1ccc(C(=O)OCc2cc3ccccc3[nH]c2=O)cc1 | inconclusive: 39.8 µM [activator, single point] |
| O=C(NC1CCCCC1)c1ccc(Cn2c(SCc3ccccc3)nc3cccnc32)cc1 | inconclusive: 39.8 µM [activator, single point] |

| SMILES | Potency |
| --- | --- |
| COc1cccc(-c2c(C#N)c(SC)nc3cc(C)nn23)c1 | inconclusive: 28.2 µM [activator, single point] |
| Cc1ccccc1-c1n[nH]c(=S)o1 | active: 15.8 µM |
| Cn1nnnc1-c1cc(Br)ccc1NC(=O)c1ccccc1 | inconclusive: 39.8 µM [activator, single point] |
| CCCCNc1nc2c(S(=O)(=O)c3ccc(C)cc3)nnn2c2ccsc12 | inconclusive: 28.2 µM [activator, single point] |
| Cn1c(NC(=O)c2ccccc2)c(-c2ccccn2)c(=O)c2ccccc21 | inconclusive: 39.8 µM [activator, single point] |
| Cn1c(=O)c2c(ncn2CC(O)CNc2ccc(F)cc2)n(C)c1=O (stereo unspecified) | inconclusive: 15.8 µM [activator, partial curve] |
| CCn1c(C)nc2cc(C#N)ccc21 | inactive |
| CCCCNC(=O)c1c(O)c2cccc3c2n(c1=O)CCC3 | inactive |
| Cc1cccc(NC(=O)c2cnc3sc(N4CCCC4)nn3c2=O)c1C | inconclusive: 35.5 µM [activator, single point] |
| C/C(=N\NC(=O)c1c(C)nc2ccccn12)c1cccc([N+](=O)[O-])c1 | inconclusive: 22.4 µM [activator, partial curve] |
| N#CCNC(=O)c1nn2c(C(F)(F)F)cc(-c3ccccc3)nc2c1Br | inconclusive: 25.1 µM [activator, partial curve] |
| COC(=O)c1cn(C)c2ccc(S(=O)(=O)N3CC(C)CC(C)C3)cc2c1=O (stereo unspecified) | inconclusive: 39.8 µM [activator, single point] |
| COc1cccc(C(=O)CSc2nnc(-c3cc(OC)cc(OC)c3)o2)c1 | inconclusive: 6.31 µM [activator, single point] |
| O=c1oc2c(CN3CCN(CCO)CC3)c(O)ccc2cc1-c1ccccc1 | inconclusive: 31.6 µM [activator, partial curve] |
| COc1ccc(Cn2ccc3nc(C)c(C(=O)NCc4ccc(F)cc4)cc3c2=O)cc1 | inconclusive: 35.5 µM [activator, single point] |
| Cn1c(N)c(C(=O)COC(=O)C2=NNC(=O)CC2)c(=O)n(C)c1=O | inconclusive: 25.1 µM [activator, partial curve] |
| Cc1cc2oc(C(=O)Nc3ccc(S(=O)(=O)N4CCCCCC4)cc3)cc(=O)c2cc1C | inconclusive: 22.4 µM [activator, partial curve] |
| COc1ccc(CN(C)CC(=O)Nc2ccc(SC(F)F)cc2)cc1OC | inactive |
| O=C(NCCc1ccccc1Cl)c1ccc2c(c1)nc1n2CCCCC1 | inactive |
| COc1cccc(C2C(C(=O)c3ccc(C)o3)=C(O)C(=O)N2CCN2CCOCC2)c1OC (stereo unspecified) | inconclusive: 25.1 µM [activator, partial curve] |
| Cc1ccc(C)c(-n2nnnc2SCC(=O)c2c(N)n(C)c(=O)n(C)c2=O)c1 | inconclusive: 15.8 µM [activator, partial curve] |
| CCc1ccccc1NC(=O)c1cnc2sc(N3CCCC3)nn2c1=O | inconclusive: 39.8 µM [activator, single point] |
